In article PMC4242493:
This is one part of the list. The list includes weakly bound sequences.

biological target: MaxL homodimer (UniProt P61244); experiment: universal protein-binding microarray (PBM); settings: PBS-based mixture, 10 nM His-tagged protein dimer, 2% milk, 200 ng/uL BSA, 50 ng/uL salmon testes DNA, 0.02% TX-100; detection with Alexa 488 anti-His …; high values mean tight binding; most listed sequences are background and not binding sites; double strand, one strand shown
Chain of UniProt P61244 (P61244 whole entry): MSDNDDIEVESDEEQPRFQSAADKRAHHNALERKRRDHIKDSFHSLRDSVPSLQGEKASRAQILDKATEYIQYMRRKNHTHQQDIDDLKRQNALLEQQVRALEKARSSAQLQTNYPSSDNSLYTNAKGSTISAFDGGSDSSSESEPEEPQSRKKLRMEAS

Row | Sequence | binding signal (normalized occupancy)
1 | AGGCCGCC | 0.0676
2 | ACCTGGTG | 0.0804
3 | CGCATTAG | 0.0758
4 | GACCACCA | 0.0803
5 | AAGCGTAG | 0.0679
6 | GTGACAAC | 0.0813
7 | CCTTCTGC | 0.0729
8 | GATGACCA | 0.0763
9 | CGGGACGC | 0.0716
10 | ACGGGAAA | 0.0708
11 | ATATCTAG | 0.0761
12 | AAAGCCCA | 0.0724
13 | ATTCACGG | 0.0721
14 | GTGGCGGA | 0.0754
15 | ATAGGAAT | 0.079
16 | CGATTTGC | 0.0663
17 | AAGAGCAA | 0.0747
18 | ACAACGGT | 0.0733
19 | CGACCGAA | 0.0668
20 | ATAGTAAC | 0.0803
21 | GGGAAAGA | 0.0722
22 | ACCCGCGG | 0.0753

Row | Sequence | binding signal (normalized occupancy)
23 | GCGGACCA | 0.0739
24 | CGGATTTC | 0.0673
25 | CCACAACA | 0.0784
26 | AACTAGAA | 0.0733
27 | AGATCTCA | 0.0781
28 | GGGCTCAA | 0.0662
29 | ATTCTGAC | 0.0729
30 | TAATTTGA | 0.0725
31 | ACCTCATG | 0.113
32 | AGAGTTCA | 0.072
33 | CTTCGAGC | 0.0654
34 | CTGCTGTA | 0.0714
35 | TACACAGA | 0.0759
36 | CCCACAGA | 0.0807
37 | AGGTAAAT | 0.0799
38 | CGCATCCG | 0.0736
39 | CCGTCCTA | 0.0728
40 | CGACGAAA | 0.0706
41 | CCTCGCTC | 0.072
42 | AAAGTGGA | 0.0743
43 | ACAGAGAC | 0.0758
44 | ATGAACAG | 0.0797

Row | Sequence | binding signal (normalized occupancy)
45 | ACGGAGTC | 0.0685
46 | GTGATACA | 0.0838
47 | CACTTCTC | 0.074
48 | GCTTAACA | 0.0798
49 | CGGCCTAC | 0.0723
50 | CATACATC | 0.0856
51 | AACAATCA | 0.0758
52 | CAAGAATG | 0.0745
53 | AGCCGAAG | 0.0697
54 | AAGGGGTA | 0.0794
55 | ACACCTTA | 0.0753
56 | GCACGATA | 0.0812
57 | ATCCCGTC | 0.0762
58 | AGAGTCGC | 0.0764
59 | ACTTAGGA | 0.072
60 | ATAGACCA | 0.0742
61 | CAACGCAA | 0.0717
62 | CCCTAAAC | 0.0722
63 | ACTGATAC | 0.0881
64 | CACGTCCC | 0.081
65 | CGTATATC | 0.0793
66 | ATGGCCGG | 0.0713

Row | Sequence | binding signal (normalized occupancy)
67 | GCATGCGC | 0.121
68 | CTTCGCAC | 0.0771
69 | CACATACG | 0.0784
70 | ACGCGCCG | 0.072
71 | TCCTTCAA | 0.0731
72 | ACCGATCA | 0.0748
73 | GGGGATTA | 0.0801
74 | GGCTTGGA | 0.0761
75 | CCAGCTCC | 0.0698
76 | AACCACAC | 0.0854
77 | ATTATTCG | 0.0765
78 | AATAGGAA | 0.0757
79 | AAGCCAGG | 0.0707
80 | AGAAACTG | 0.0741
81 | AACCCGGT | 0.0737
82 | ATCAAGTA | 0.0786
83 | ACTAGTTG | 0.0718
84 | CCCTCCGA | 0.069
85 | CTTTAGAC | 0.0732
86 | AAGTCAGA | 0.0709
87 | AATTGTAC | 0.0791
88 | AACATGGA | 0.0836

Row | Sequence | binding signal (normalized occupancy)
89 | ATAGCCGA | 0.074
90 | GTAATAAA | 0.076
91 | TACGTGAA | 0.0794
92 | CTCTCGAA | 0.0729
93 | AGCCTGGA | 0.0697
94 | CATAGTCG | 0.0739
95 | AAGGGGCC | 0.0717
96 | GACTCAAA | 0.0733
97 | CGTTCCTA | 0.0763
98 | AGGAGGAA | 0.0737
99 | GTTCGAAC | 0.0648
100 | AGACCACC | 0.0819
101 | GCTGTTAC | 0.0743
102 | AACCATCT | 0.0762
103 | CGCACTCA | 0.0765
104 | CCTGGTAG | 0.0693
105 | ACCCCAGT | 0.0784
106 | CTGGCAAA | 0.0693
107 | CACTCGCA | 0.0727
108 | GACTATGA | 0.0779
109 | GCCGGTCC | 0.0685
110 | ATAACTCC | 0.0792
